# Measurements published in patent US10299477B2 (priority 2015, dated 2019).
# System: Colletotrichum orbiculare
# Conditions: 250 ppm, sprayed 2.5 ml/pot before inoculation; evaluated 6-10 days after inoculation
row,SMILES,"Test H (control value class, anthracnose on cucumber)"
1,CCn1c(-c2c(F)cc(OC)cc2F)c(-c2cc(OC)cc(F)c2Cl)cc(Cl)c1=O [Compound 627],H (H shows more than 50% of control values)
2,CCn1c(-c2c(F)cc(F)cc2F)c(-c2ccccc2Cl)cc(Br)c1=O [Compound 683],H (H shows more than 50% of control values)
3,Cn1c(-c2c(F)cc(F)cc2F)c(-c2cc(F)c(F)cc2F)ccc1=O [Compound 639],H (H shows more than 50% of control values)
4,COc1cc(F)c(-c2c(-c3cc(OC)ccc3Cl)cc(Cl)c(=O)n2C)c(F)c1 [Compound 722],H (H shows more than 50% of control values)
5,CCn1c(-c2c(F)cc(F)cc2F)c(-c2ccccc2F)cc(F)c1=O [Compound 568],H (H shows more than 50% of control values)
6,COc1ccc(Cl)c(C2=C(c3c(F)cccc3F)N(C#N)C(=O)CC2)c1 [Compound 704],L (L shows 50% or less of control values)
7,CCOc1cc(F)c(-c2c(-c3cccc(F)c3Cl)cc(Br)c(=O)n2CC)c(F)c1 [Compound 659],H (H shows more than 50% of control values)
8,O=c1ccc(-c2ccc(F)cc2F)c(-c2c(F)cccc2F)n1CC(F)F [Compound 647],H (H shows more than 50% of control values)
9,CCn1c(-c2c(F)cc(OC)cc2F)c(-c2ccccc2Cl)cc(Br)c1=O [Compound 686],H (H shows more than 50% of control values)
10,COc1ccc(Cl)c(-c2cc(Br)c(=O)n(C)c2-c2c(F)cc(F)cc2F)c1 [Compound 725],H (H shows more than 50% of control values)
11,COc1cc(F)c(-c2c(-c3ccc(F)cc3Cl)cc(Cl)c(=O)n2C)c(F)c1 [Compound 600],H (H shows more than 50% of control values)
12,CCOc1cc(F)c(-c2c(-c3cccc(OC)c3Cl)cc(Br)c(=O)n2CC)c(F)c1 [Compound 643],H (H shows more than 50% of control values)
13,CCn1c(-c2c(F)cc(OC)cc2F)c(-c2cccc(OC)c2Cl)cc(Cl)c1=O [Compound 640],H (H shows more than 50% of control values)
14,Cc1cc(-c2ccc(F)cc2Cl)c(-c2c(F)cc(F)cc2F)n(C)c1=O [Compound 613],H (H shows more than 50% of control values)
15,COc1cccc(-c2cc(C)c(=O)n(C)c2-c2c(F)cc(F)cc2F)c1Cl [Compound 671],H (H shows more than 50% of control values)

# Same assay, conditions: in vivo
SMILES,Test H (control value class),Test H control value
COc1ccc(Cl)c(-c2ccc(=O)n(C3CC3)c2-c2c(F)cccc2F)c1 [Compound 496],H (key: H shows more than 50% of control values; L shows 50% or less of control values),
COc1ccc(Cl)c(-c2ccc(=O)n(C)c2-c2c(F)cc(F)cc2F)c1 [Compound 415],H (key: H shows more than 50% of control values; L shows 50% or less of control values),
CCn1c(-c2c(F)cccc2F)c(-c2cc(F)cc(F)c2F)cc(Br)c1=O [Compound 441],H (key: H shows more than 50% of control values; L shows 50% or less of control values),
CCn1c(-c2c(F)cccc2F)c(-c2cccc(F)c2Cl)cc(C)c1=O [Compound 752],H (key: H shows more than 50% of control values; L shows 50% or less of control values),
CCn1c(-c2c(F)cccc2F)c(-c2cc(Cl)cc(Cl)c2Cl)cc(Cl)c1=O [Compound 451],H (key: H shows more than 50% of control values; L shows 50% or less of control values),
CCn1c(-c2c(F)cc(OC)cc2F)c(-c2cc(F)ccc2F)cc(Cl)c1=O [Compound 469],H (key: H shows more than 50% of control values; L shows 50% or less of control values),
Cn1c(-c2c(F)cc(F)cc2F)c(-c2ccccc2Cl)ccc1=O [Compound 431],H (key: H shows more than 50% of control values; L shows 50% or less of control values),
CCN1C(=O)CCC(c2cccc(F)c2)=C1c1c(F)cccc1F [Compound 156],,H (key: H shows more than 50% of control values; L shows 50% or less of control values)
Cn1c(-c2c(F)cccc2F)c(-c2cccc(F)c2)cc(Br)c1=O [Compound 170],,H (key: H shows more than 50% of control values; L shows 50% or less of control values)
CCn1c(-c2c(F)cc(F)cc2F)c(-c2cc(F)cc(F)c2)cc(Cl)c1=O [Compound 791],H (key: H shows more than 50% of control values; L shows 50% or less of control values),
"CCn1c(-c2c(F)cc(F)cc2F)c(-c2cc(F)ccc2Cl)cc(C)c1=O [Compound 461, 5-(2-chloro-5-fluorophenyl)-1-ethyl-3-methyl-6-(2,4,6-trifluorophenyl)pyridine-2(1H)-one]",H (key: H shows more than 50% of control values; L shows 50% or less of control values),
CCn1c(-c2c(F)cccc2F)c(-c2cc(F)ccc2F)ccc1=O [Compound 478],H (key: H shows more than 50% of control values; L shows 50% or less of control values),
"CCn1c(-c2c(F)cccc2F)c(-c2cc(OCOC)ccc2Cl)ccc1=O [Compound 97, 5-(2-chloro-5-(methoxymethoxy)phenyl)-6-(2,6-difluorophenyl)-1-ethylpyridine-2(1H)-one]",,H (key: H shows more than 50% of control values; L shows 50% or less of control values)
Cn1c(-c2c(F)cc(F)cc2F)c(-c2cc(F)cc(F)c2Br)cc(Br)c1=O [Compound 817],H (key: H shows more than 50% of control values; L shows 50% or less of control values),
Cn1c(-c2c(F)cc(F)cc2F)c(-c2cccc(F)c2Cl)cc(Cl)c1=O [Compound 500],H (key: H shows more than 50% of control values; L shows 50% or less of control values),
CN1C(=O)CCC(c2cccc(F)c2)=C1c1c(F)cccc1F [Compound 172],,L (key: H shows more than 50% of control values; L shows 50% or less of control values)
CCn1c(-c2c(F)cccc2F)c(-c2c(F)cccc2Cl)cc(Cl)c1=O [Compound 397],H (key: H shows more than 50% of control values; L shows 50% or less of control values),
COc1cc(F)c(-c2c(-c3cc(F)ccc3Cl)ccc(=O)n2C)c(F)c1 [Compound 760],H (key: H shows more than 50% of control values; L shows 50% or less of control values),
CCn1c(-c2c(F)cccc2F)c(-c2cccc(Cl)c2F)cc(C)c1=O [Compound 493],H (key: H shows more than 50% of control values; L shows 50% or less of control values),
COc1cc(F)c(-c2c(-c3ccccc3)ccc(=O)n2C)c(F)c1 [Compound 778],H (key: H shows more than 50% of control values; L shows 50% or less of control values),
Cn1c(-c2c(F)cccc2F)c(-c2cccc(Cl)c2F)cc(Cl)c1=O [Compound 475],H (key: H shows more than 50% of control values; L shows 50% or less of control values),
CCn1c(-c2c(F)cccc2F)c(-c2ccccc2C(F)(F)F)cc(Br)c1=O [Compound 148],,L (key: H shows more than 50% of control values; L shows 50% or less of control values)
